# From PubChem BioAssay AID886 (National Center for Advancing Translational Sciences (NCATS), 2007)
# Hit rate of the full screen: of about 73,000 compounds, about 2,500 (3.4%) were called active. The shares of active, inactive and inconclusive entries below differ from those in the screen. The call rests on the fitted dose curve; in most records, active means well fitted inhibition curve with a large enough effect; inconclusive means small, poorly fitted or top-dose-only effect; inactive means no such curve, though single readings can be large or run the other way. Potencies beside an inconclusive call are fits to weak or partial responses and may not hold up.
# Molecular target: 3-hydroxyacyl-CoA dehydrogenase type-2 (Homo sapiens) (UniProt Q99714)
# Test: qHTS Assay for Inhibitors of HADH2 (Hydroxyacyl-Coenzyme A Dehydrogenase, Type II); further: nearly all actives have a fitted effect of over 60% in size
# Conditions: recombinant HADH2, NADH fluorescence, beta-hydroxybutyryl-CoA; activity change, negative = inhibition: at 57.1 µM (top of the series)
# How it was run: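 His-tagged recombinant enzyme from E. coli, 20 nM, preincubated 15 min RT with compound; reaction started with 1 mM NAD+ and 90 uM beta-hydroxybutyryl-CoA in 100 mM Tris-HCl pH 9.0. NADH fluorescence (ex 360/em 450) read over 4 min; last-minus-first difference.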
# On the % scale 0 is the no-effect control and ±100 the full control effect; potency means the concentration at half of the fitted maximal effect; tags describe the fitted curve by direction and shape.
# Sequence of UniProt Q99714 (Q99714 whole entry, looked up): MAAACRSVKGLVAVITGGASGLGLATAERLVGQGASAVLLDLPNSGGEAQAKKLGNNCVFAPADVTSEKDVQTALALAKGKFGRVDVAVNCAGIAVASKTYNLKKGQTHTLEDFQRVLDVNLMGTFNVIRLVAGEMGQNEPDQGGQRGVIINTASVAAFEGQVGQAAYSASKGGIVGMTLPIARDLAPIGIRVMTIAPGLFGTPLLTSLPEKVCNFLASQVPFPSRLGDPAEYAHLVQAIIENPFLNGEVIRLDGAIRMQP
# Sequence of UniProt Q99714 (Q99714 whole entry, looked up): as above
SMILES,Potency,"activity change, negative = inhibition"
CCCc1[nH][nH]c(=O)c1C(c1cccc(Cl)c1)C(C#N)C#N (stereo not drawn),"inconclusive: 25.1 µM [inhibitor, single point]",–
Cc1cc(Cl)cc(Cl)c1OCC(=O)NCc1ccco1,–,inactive: -11.3% [at 11.4 µM]
Cc1nc2ccc(F)cc2cc1C(=O)NC(C)C,inactive,–
O=C1[C@@H]2CSCN2C(=O)CN1CCc1cccc(F)c1,"inconclusive: 15.8 µM [inhibitor, partial curve]",–
CCc1nnc(SCC(=O)Nc2ccc(C(C)=O)cc2)nc1CC,"inconclusive: 39.8 µM [inhibitor, single point]",–
C/C(=C\C(=O)c1ccc(C)cc1)Nc1cccc(O)c1,"inconclusive: 39.8 µM [inhibitor, single point]",–
c1ccc(-c2nnc3sc(-c4cc5ccccc5o4)nn23)cc1,"inconclusive: 39.8 µM [inhibitor, single point]",–
CCOC(=O)C1C(=O)NC(N2CCCCC2)=NC1C(C)C (stereo not drawn),"inconclusive: 2 µM [inhibitor, partial curve]",–
CC(C)Cn1c(SCC#N)nc2ccccc2c1=O,inactive,–
O=C(NCc1ccco1)c1cc2ccccc2c(=O)o1,"inconclusive: 25.1 µM [inhibitor, single point]",–
CCN(CC)S(=O)(=O)c1ccc2c(c1)nc(SCc1nc3ccsc3c(=O)[nH]1)n2CC,"inconclusive: 39.8 µM [inhibitor, single point]",–
COC(=O)c1[nH]c2cc(C)ccc2c1NC(=O)CN1CCN(C(=O)c2ccco2)CC1,"inconclusive: 39.8 µM [inhibitor, single point]",–
Cc1ccc(Nc2ncc3c(n2)CC(c2ccco2)CC3=O)c(C)c1 (stereo not drawn),"inconclusive: 31.6 µM [inhibitor, single point]",–
N#CC1=C(N)SC(N)=C(C#N)C1CCC1CCCCC1,active: 12.6 µM,–
Oc1ccccc1C1Nc2cccc3cccc(c23)N1,active: 31.6 µM,–
Cn1c2ccccc2c2c(C(=O)N3CCN(c4ccccc4)CC3)cn(C3CCCC3)c(=O)c21,"inconclusive: 39.8 µM [inhibitor, single point]",–
Cc1cccc(C)c1OCc1nnc(SCC(=O)NCCc2ccccc2)o1,"inconclusive: 12.6 µM [inhibitor, partial curve]",–
CC1=C(C(=O)OCc2ccccc2)C(c2cccnc2)n2ncnc2N1 (stereo not drawn),"inconclusive: 31.6 µM [inhibitor, single point]",–
COc1cccc(-c2cncnc2N(C)Cc2ccco2)c1,"inconclusive: 20 µM [inhibitor, partial curve]",–
COC(=O)c1ccc(C(=O)OC)c(NC(=O)CSc2nnc(-c3ccccc3Cl)o2)c1,"inconclusive: 39.8 µM [inhibitor, single point]",–
NC(N)=NC(=O)Cc1c(Cl)cccc1Cl,"inconclusive: 7.94 µM [inhibitor, single point]",–
CCOC(=O)CC1Sc2ccccc2NC1=O (stereo not drawn),"inconclusive: 31.6 µM [inhibitor, single point]",–
CSc1nnc([C@@H](NC(=O)OC(C)(C)C)C(C)C)o1,inactive,–
CCCCCCC/C=C\CCCCCCCCC(=O)O,"inconclusive: 31.6 µM [inhibitor, single point]",–
COc1ccccc1CNc1ncnc2ccc(-c3ccoc3)cc12,"inconclusive: 31.6 µM [inhibitor, single point]",–

SMILES,Potency,"activity change, negative = inhibition"
O=C1C2CCCN2C(c2ccccc2)N1c1nccs1 (stereo not drawn),inactive,–
Cc1cc2nc(-c3ccc(SCC(=O)N4CCOCC4)nc3)[nH]c2cc1C,"inconclusive: 10 µM [inhibitor, single point]",–
CCOC(=O)C(C)Sc1nnc(Cn2c(=O)sc3ccccc32)n1-c1ccccc1 (stereo not drawn),"inconclusive: 25.1 µM [inhibitor, single point]",–
Cc1noc(C)c1-c1nc(Nc2ccncc2)c2ccccc2n1,active: 31.6 µM,–
O=C(O)c1cc2c(s1)-c1ccccc1OC2,active: 25.1 µM,–
O=C(c1ccncc1)N1CCC2(CC1)CN(c1ncccn1)C2,inactive,–
Clc1cccc(Cl)c1C(Nc1nncs1)Nc1nncs1,–,inactive: 7.93% [at 11.4 µM]
CCCCn1c(NC(=O)c2ccc(F)cc2)c(C#N)c2nc3ccccc3nc21,"inconclusive: 39.8 µM [inhibitor, single point]",–
COCCn1cc(C(=O)N2CCC(C)CC2)c2c3ccccc3n(C)c2c1=O,active: 25.1 µM,–
CCCSC1=C(C#N)C(c2ccccc2C)CC(=O)N1 (stereo not drawn),"inconclusive: 25.1 µM [inhibitor, partial curve]",–
Cc1nc2n(n1)C(c1ccccc1)C1=C(CC(c3ccco3)CC1=O)N2 (stereo not drawn),"inconclusive: 31.6 µM [inhibitor, single point]",–
Cn1c(C(=O)N2CCN(Cc3ccc4c(c3)OCO4)CC2)cc2c(=O)n(C)c3ccccc3c21,"inconclusive: 25.1 µM [inhibitor, single point]",–
O=C(CSc1nnc(CNC(=O)c2ccco2)o1)c1ccccc1,"inconclusive: 12.6 µM [inhibitor, partial curve]",–
Cc1cc(C)nc(-n2nc(C)c3c(C(F)F)cc(C)nc32)n1,inactive,–
Cc1ccnc(SCCn2c(N3CCOCC3)nc3c2c(=O)n(C)c(=O)n3C)n1,"inconclusive: 7.94 µM [inhibitor, single point]",–
CCOC(=O)C1CCN(S(=O)(=O)c2ccc(Br)c(OCC)c2)CC1,inactive,–
CC1=C(C(=O)Nc2ccccc2)C(c2ccco2)C(C#N)=C(SCc2ccccc2)N1 (stereo not drawn),"inconclusive: 31.6 µM [inhibitor, single point]",–
O=C(O)c1ccc2cccc(Cl)c2c1O,"inconclusive: 39.8 µM [inhibitor, single point]",–
CCOC(=O)c1c(NC(=O)c2nn(CC)cc2Br)sc2c1CCCCC2,active: 31.6 µM,–
O=C(c1ccc(=O)oc1)N1CCCc2ccccc21,active: 20 µM,–
CCOC(=O)OCC,inactive,–
O=C(c1cccc(F)c1)N1CCC2(CC1)CN(c1ccncc1)C2,inactive,–
C=C(C)COc1ccc2c(C)c(CC(=O)OC)c(=O)oc2c1C,"inconclusive: 0.501 µM [inhibitor, partial curve, poor fit]",–
COc1ccc(-c2cc(=O)oc3c(C)c(OCc4nn[nH]n4)ccc23)cc1,"inconclusive: 3.98 µM [inhibitor, single point]",–
CC(C)(C)c1csc(NC2=NS(=O)(=O)c3ccccc32)n1,"inconclusive: 39.8 µM [inhibitor, single point]",–

SMILES,Potency,"activity change, negative = inhibition"
Cc1nc(NCc2ccccc2)c2nc(-c3ccccc3)n(CCCN3CCCCC3C)c2n1 (stereo not drawn),"inconclusive: 39.8 µM [inhibitor, single point]",–
Cc1ccc(OCC(=O)Nc2ccc(O)c(-c3nc4ccccc4o3)c2)cc1,"inconclusive: 6.31 µM [inhibitor, single point]",–
CCn1c(CCNC(=O)c2cccs2)nnc1SCC(=O)c1ccc(OC)cc1,"inconclusive: 3.16 µM [inhibitor, full curve]",–
COc1cc(NS(=O)(=O)c2ccc(NC(=O)COc3ccccc3C)cc2)nc(OC)n1,"inconclusive: 31.6 µM [inhibitor, single point]",–
O=C(COC(=O)C1CCN(S(=O)(=O)c2cccs2)CC1)c1cc2ccccc2o1,"inconclusive: 39.8 µM [inhibitor, single point]",–
CC(C)C[C@H](NC(=O)Nc1cccc(Cl)c1)C(=O)O,inactive,–
N.N.N.N.N.N.N.N.N.N.N.N.N.N.O.O.[Ru].[Ru].[Ru],"inconclusive: 20 µM [inhibitor, partial curve]",–
N#C/C(=C\c1c[nH]c2ccccc12)C(=O)c1ccc(O)c(O)c1,"inconclusive: 15.8 µM [inhibitor, partial curve]",–
Cc1ccc2cccc(NC(=O)c3ccc(Br)o3)c2n1,inactive,–
COc1ccc(N2C(=O)c3ccccc3NC23CCCCC3)cc1,"inconclusive: 31.6 µM [inhibitor, single point]",–
CN1CCc2cc(Cl)c(O)cc2[C@H](c2ccccc2)C1,"inconclusive: 15.8 µM [inhibitor, partial curve]",–
O=C(NC1CCCCC1)c1cnn2c(C(F)(F)F)cc(-c3ccco3)nc12,inactive,–
Cc1ccc2c(c1C)NC(C(=O)O)C1CC=CC21 (stereo not drawn),active: 10 µM,–
CCOC(=O)c1c(NS(C)(=O)=O)sc2c1CCC(C)C2 (stereo not drawn),"inconclusive: 31.6 µM [inhibitor, single point]",–
CC(=O)CC1OC(=O)C(Br)=C1NCc1ccccc1 (stereo not drawn),"inconclusive: 1.26 µM [inhibitor, full curve]",–
O=C(O)CCc1ccc(-c2ccccc2)[nH]1,–,inactive: -24.6% [at 11.4 µM]
Cc1cc(C)n2nc(SCC(=O)Nc3ccc(F)cc3)nc2n1,inactive,–
C=CCc1cccc2cc(C(=O)OCC)c(=O)oc12,"inconclusive: 39.8 µM [inhibitor, single point]",–
O=S1(=O)NC2CCCCCN2c2ccc(F)cc21 (stereo not drawn),"inconclusive: 39.8 µM [inhibitor, single point]",–
CCOC(=O)C(C)Sc1nc2c(c(=O)[nH]c(=O)n2C)n1Cc1ccc(Cl)cc1 (stereo not drawn),"inconclusive: 10 µM [inhibitor, partial curve]",–
Cn1c(C(=O)N2CCc3ccccc3C2)cc2oc3ccccc3c21,"inconclusive: 39.8 µM [inhibitor, single point]",–
CCc1ccc2[nH]cc(C(=O)N3CCCCCC3)c(=O)c2c1,inactive,–
Nc1ccc2c(c1)ncn2CCCn1cnc2cc(N)ccc21,"inconclusive: 20 µM [inhibitor, single point]",–
